Drawing on a collection of fitness landscapes (doi:10.1126/science.1257360), this text covers enrichment ratio for 153 variants.

The list shows a part of the results.

The chains are these.
B1: PhoQ; a variant is named by its letters at X, in order, P23837 (parent)
chain: MKKLLRLFFPLSLRVRFLLATAAVVLVLSLAYGMVALIGYSVSFDKTTFRLLRGESNLFYTLAKWENNKLHVELPENIDKQSPTMTLIYDENGQLLWAQRDVPWLMKMIQPDWLKSNGFHEIEADVNDTSLLLSGDHSIQQQLQEVREDDDDAEMTHSVAVNVYPATSRMPKLTIVVVDTIPVELKSSYMVWSWFIYVLSANLLLVIPLLWVAAWWSLRPIEALAKEVRELEEHNRELLNPATTRELTSLVRNLNRLLKSERERYDKYRTTLTDLTHSLKTPLXXLQXXLRSLRSEKMSVSDAEPVMLEQISRISQQIGYYLHRASMRGGTLLSRELHPVAPLLDNLTSALNKVYQRKGVNISLDISPEISFVGEQNDFVEVMGNVLDNACKYCLEFVEISARQTDEHLYIVVEDDGPGIPLSKREVIFDRGQRVDTLRPGQGVGLAVAREITEQYEGKIVAGESMLGGARMEVIFGRQHSAPKDE

Variants of B1 are the subject of the experiment. Briefly: enrichment ratio after two sorts for PhoP signalling (ratio (wild type AVST 3.29)); higher = more functional. The settings on record: with PhoP (E. coli).
With QPII, the enrichment ratio is not above 0.25. The figure for IFTA is not above 0.25; for TIAT it is 10.2. Consider KRIH, for which the enrichment ratio is not above 0.25. The figure for YHEE is not above 0.25; for LVHP it is not above 0.25; for VKNS it is not above 0.25. The same measure for HGCK: not above 0.25. The same measure for GAMF: not above 0.25.

For the variant PIWN, the enrichment ratio is not above 0.25. MCFP: the enrichment ratio is not above 0.25.

In the case of QFYQ, the enrichment ratio was not above 0.25.

Take IMLI: the enrichment ratio was not above 0.25. Take IEPI: the enrichment ratio was not above 0.25. The same measure for IYTQ: not above 0.25; for STAE: 9.48; for ASRR: not above 0.25. Turning to DYMM, the enrichment ratio was not above 0.25. In the case of WKHY, the enrichment ratio is not above 0.25. Take MPKR: the enrichment ratio was not above 0.25.

For REVP, the enrichment ratio was not above 0.25. The same measure for GYTC: not above 0.25; for LSSY: not above 0.25. Regarding PIMD, the enrichment ratio was not above 0.25.

LPGH: the enrichment ratio was not above 0.25.

Regarding YDET, the enrichment ratio was not above 0.25. For the variant QSMI, the enrichment ratio stood at 7.54. The figure for DWWN is not above 0.25; for MWHP it is not above 0.25; for SDNC it is not above 0.25. For MLCI, the enrichment ratio is 7.47.

On to IYYF, for which the enrichment ratio was not above 0.25. In the case of DCAV, the enrichment ratio was not above 0.25.

As to LFHC, the enrichment ratio was not above 0.25. The same measure for KQQI: not above 0.25; for QMHF: 13.5. The same measure for GAVN: not above 0.25; for TLAN: 12.5.

Turning to GSRV, the enrichment ratio was not above 0.25.

In the case of SRLI, the enrichment ratio amounted to 6.88. The figure for IIWF is not above 0.25.

Take VGCE: the enrichment ratio is not above 0.25. With FILF, the enrichment ratio stood at 7.23. As to WDTP, the enrichment ratio was not above 0.25. The same measure for KAQA: not above 0.25. For CARG, the enrichment ratio is not above 0.25.

With NQDP, the enrichment ratio is not above 0.25.

In the case of EHNG, the enrichment ratio is not above 0.25.

Consider YTGW, for which the enrichment ratio was not above 0.25. The figure for GVSN is 5.89; for TTST it is 10.3; for KVKH it is not above 0.25.

Take VTMA: the enrichment ratio was not above 0.25. Take TCAW: the enrichment ratio is 1.27. The same measure for LYPI: not above 0.25; for PAPW: not above 0.25; for SITN: 4.88. The figure for VDVS is not above 0.25.

In the case of LETM, the enrichment ratio is not above 0.25.

Regarding CFPS, the enrichment ratio is not above 0.25. The figure for KCIH is not above 0.25.

As to PLKD, the enrichment ratio is not above 0.25. Regarding MNAH, the enrichment ratio was 10.2. The figure for DPHL is not above 0.25.

For TWLK, the enrichment ratio is not above 0.25. Consider FAMC, for which the enrichment ratio was found to be 0.442. The same measure for TWCW: not above 0.25. Take TKEG: the enrichment ratio was not above 0.25.

As to SKHL, the enrichment ratio was not above 0.25. The figure for IAYH is not above 0.25; for ELSH it is 1.14; for KTRN it is not above 0.25. The same measure for VGLR: not above 0.25; for GVIW: not above 0.25. For the variant HYDM, the enrichment ratio was not above 0.25. Take NFTS: the enrichment ratio was not above 0.25. Regarding EIVM, the enrichment ratio was not above 0.25.

PRAP: the enrichment ratio was not above 0.25. The same measure for HLKK: not above 0.25. The same measure for DDYA: not above 0.25; for VQAR: not above 0.25; for FYKG: not above 0.25. The figure for AKHR is not above 0.25; for QSLK it is not above 0.25; for RLMR it is not above 0.25. On to NPMF, for which the enrichment ratio was not above 0.25. Take APVW: the enrichment ratio is not above 0.25. The figure for TGDY is not above 0.25.

Take GHLW: the enrichment ratio is not above 0.25. With IGKF, the enrichment ratio is not above 0.25.

Turning to SPID, the enrichment ratio was not above 0.25.

EHCI: the enrichment ratio was not above 0.25.

Regarding DGNV, the enrichment ratio is not above 0.25. For the variant HMYQ, the enrichment ratio is not above 0.25. For AGTI, the enrichment ratio came out at 16.7. The figure for MSEC is not above 0.25; for GMEG it is not above 0.25. The same measure for VWGS: not above 0.25; for MVMQ: not above 0.25; for LWSG: not above 0.25.

With TWFN, the enrichment ratio was not above 0.25. As to QRGN, the enrichment ratio is not above 0.25. With DWHG, the enrichment ratio was not above 0.25. Take KTWW: the enrichment ratio was not above 0.25. The figure for VWPH is not above 0.25.

Take TVSP: the enrichment ratio is not above 0.25.

As for GDFI, the enrichment ratio was not above 0.25. Turning to GGCW, the enrichment ratio was not above 0.25.

Regarding GSQW, the enrichment ratio was not above 0.25. The same measure for QSEY: not above 0.25; for PCET: not above 0.25. The same measure for AWGV: not above 0.25. The figure for PDWH is not above 0.25.

Turning to NNHY, the enrichment ratio is not above 0.25. The figure for GQAD is not above 0.25; for QAPI it is not above 0.25. The same measure for KNFV: not above 0.25. Consider KRGC, for which the enrichment ratio was not above 0.25. LRDC: the enrichment ratio is not above 0.25.

TYCS: the enrichment ratio is 0.648. The same measure for TPSK: not above 0.25; for RFGT: not above 0.25. The figure for DMCT is not above 0.25. Take QQEY: the enrichment ratio was not above 0.25. Consider TYCQ, for which the enrichment ratio was 0.376. With NPGM, the enrichment ratio is not above 0.25.

As for INHN, the enrichment ratio was not above 0.25. The same measure for RLAR: not above 0.25; for VGTM: not above 0.25. The same measure for GFMR: not above 0.25; for RILC: not above 0.25. The figure for FVPC is not above 0.25; for TLHG it is not above 0.25; for HAVQ it is not above 0.25.

Turning to NMAV, the enrichment ratio is not above 0.25.

For QKVT, the enrichment ratio is not above 0.25.

On to DSFY, for which the enrichment ratio is not above 0.25. Consider LYHT, for which the enrichment ratio was not above 0.25. Take STHE: the enrichment ratio is not above 0.25. The same measure for TLMY: not above 0.25; for MKSH: not above 0.25; for LCME: not above 0.25. The same measure for KGFN: not above 0.25; for VFQF: not above 0.25. The figure for GAYL is not above 0.25; for SYWM it is not above 0.25. On to KNIL, for which the enrichment ratio was not above 0.25. The figure for DKNW is not above 0.25; for LHPG it is not above 0.25; for KSDA it is not above 0.25. The same measure for ATDF: not above 0.25; for LQYC: not above 0.25; for RCYS: not above 0.25.
